The target in test [1] is hCCR8 SNAP-tag (human) (UniProt P51685). The test is described as follows: HTRF Tag-lite, inhibition of hCCL1-AF647 binding to SNAP-tag hCCR8 on HEK-293. (In general: Time-resolved FRET reads energy transfer from a long-lived donor to a nearby acceptor.)
Test [2] concerns the target human CCR8 (human) (UniProt P51685). The test is described as follows: flow cytometry, inhibition of hCCL1-AF647 binding to hCCR8 CHO cells.

Drawing on patent US20260167731A1, this text covers IC50 and Ki for one substance.

Some entries of the source have several records that differ or are many. Only these are listed. An entry can have further records. Values that stand side by side seem to repeat one measurement on other runs, samples or individuals.

As usually defined, the IC50 is the concentration that gives 50% inhibition. Low readings indicate greater potency in that assay, high ones weaker potency in that assay. In general, Ki refers to a measure of affinity in units of concentration, obtained from inhibition or displacement. The low end stands for tighter binding, the high end for weaker binding. Take “murine anti-human CCR8 monoclonal antibody L263G8”: in test [1], the IC50 is 0.14 µg/mL and 0.96 nM [columns of one line]; the Ki was 0.07 µg/mL and 0.48 nM [columns of one line]. In addition, the IC50 in test [2] is 0.4 µg/mL and 2.7 nM [columns of one line].
